# Experimental data: patent EP1469074B1, “Human calcium channel compositions and methods” (priority 1991, dated 1993)
# Tested on: human neuronal calcium channel α1D, α2 and β1 subunits, expressed in Xenopus laevis oöcytes
# Experiment: Two-electrode voltage clamp of barium currents in Xenopus laevis oöcytes coinjected with α1D, α2 and β1 transcripts
# Assay type: cell-based
SMILES,"effect on barium currents (Bay K 8644, concentration not stated, also prolonged tail currents and hyperpolarizing shift in current activation)","fraction of the inward barium current blocked (nifedipine, concentration not given, n=7, 40 mM BaCl2 bath) [%]"
COC(=O)C1=C(C)NC(C)=C([N+](=O)[O-])C1c1ccccc1C(F)(F)F (centres unmarked) [Bay K 8644],increased the magnitude of the currents,
COC(=O)C1=C(C)NC(C)=C(C(=O)OC)C1c1ccccc1[N+](=O)[O-] [nifedipine],,91 ± 6
